Our source for the self-cleavage values is the RNAGym collection of RNA variant scans (doi:10.7554/elife.90254).

To fix the notation:
B1: OR4K15 (parent)
chain: GUUAACGGUCAUAGGCCAUGGAAACUAGGAGCACCAUUUCGCUGCCAGUGAAGAAAUGAACAAAGAAAAUCUGGGCCAGGCAGGCAUCAAAAGAAAUAGUCUUGCGCUCAACCAGAAAGUCUGUAAUCAUUUUAAGGGUA

The source gives no read counts; variants with many changes may rest on few reads.

Variants of B1 are the subject of the series. The experiment in a line: self-cleavage, relative activity (ratio to wild type); higher = more cleavage; in vitro, sequencing; the parent is a self-cleaving ribozyme.
Regarding GUUAACGGUCAUAGGCCAUGGAAACUAGGAGCACCAUUUCGCUGCCUGUGAAGAAACGAACAAAGAAAAUCUGGGCCAGGCAGGCAUCAAAGGAAAUAGUCUUGCGCUCAACCAGAAAGUCCGUAAUCAUUUUAAGGGUA [A47U U57C A92G U122C], the self-cleavage was found to be 0.28. With GUUAACGGUCAUAGGCCAUGGAAACUAGGAGCACCAUUUCGCUGCCUGUGAAGAAAUGAACAAAGAAAAUCUGGGCCAGGCAGGCAUCAAAAGAAAUAGUCUUGCGCUCAACCAGAGAGUCUGUAAUCACUUUAAGGGUA [A47U A117G U130C], the self-cleavage is 0.2. Next, GUUAACGGUCAUAGGCCAUGGAAACUAGGAGCACCAUUUCGCUGCCUAUGAAGAAAUGAACAAAGAAAAUCUGGGCCAGGCAGGCAUCAAAAGAAAUAGUCUUGCGCUCAACCAGGAAGUCUGUAAUCAUUUUAAGGGUA [A47U G48A A116G]: 0.35. The figure for GUUAACGGUCAUAGGCCAUGGAAACUAGGAGCACCAUUUCGCUGCCUGUGAAGAAAUGAACAAAGAAAAUCUGGGCCAGGCAGGCAUCAAAAGGAAUAGUCUUGCGCUCAACCAGAAGGUCUGUAAUCAUUUCAAGGGUA [A47U A94G A118G U133C] is 0.68; for GUUAACGGUCAUAGGCCAUGGAAACUAGGAGCACCAUUUCGCUGCCUGUGAAGAAAUGAACAAAGAAAAUCUGGGCCAAGCAGGCAUCAAAAGAAGUAGUCUUGCGCUCAACCAGAAAGUCUGUAAUCAUUUUAAGGGUA [A47U G79A A96G] it is 0.13.

Regarding GUUAACGGUCAUAGGCCAUGGAAACUAGGAGCACCAUUUCGCUGCCUGAGAAGAAAUGAACAAAGAAAAUCUGGGCCAGGCAGGCAUCAAAAGAAAUAGUCUUGCGCUCAACCAGAAAGCCUGUAAUCAUUUUAAGGGUA [A47U U49A U120C], the self-cleavage was 0.25. As to GUUAACGGUCAUAGGCCAUGGAAACUAGGAGCACCAUUUCGCUGCCUGUGAAGAAAUGAACAAAGAAAAUCUGGGCCAGGCAGGCAUCGAAAGAAAUAGUCUUGCGCUCAACCAGAAAGUCUGUAAUCAUCUUAAGGGUA [A47U A89G U131C], the self-cleavage was found to be 0.59. On to GUUAACGGUCAUAGGCCAUGGAAACUAGGAGCACCAUUUCGCUGCCUGUGAAGAAACGAACAGGGAAAAUCUGGGCCAGGCAGGCAUCAAAAGAAAUAGUCAUGCGCUCAACCAGAAAGUCUGUAAUCAUUUUAAGGGUA [A47U U57C A63G A64G U102A], for which the self-cleavage was 0.2.

Consider GUUAACGGUCAUAGGCCAUGGAAACUAGGAGCACCAUUUCGCUGCCUGUGAAGAAAUGAACAAAGAAAAUCUGGGCCUGGCAGUCAUCAAAAGAAAUAGUCUUGCGCUCAACCAGAAAGUCUGUAACCAUUUUAAGGGUA [A47U A78U G84U U127C], for which the self-cleavage was determined as 0.11. Next, GUUAACGGUCAUAGGCCAUGGAAACUAGGAGCACCAUUUCGCUGCCUGUGAAGAAAUGAACAAAGAAAAUCUGGGCCAGGCAGGCAUCAAAAGAAGUAGUCUUGCGCUCAACCAGAAAGUCUGUAAUCAUUUUAAGGGUG [A47U A96G A140G]: 1.37. Take GUUAACGGUCAUAGGCCAUGGAAACUAGGAGCACCAUUUCGCUGCCUGUGAAGAAAUGAACAAAGAAAGUCUGGGCCAGGCAGGCAUCAAAAGAAAUAGUCUUGCGCUCAACCAGAAAGUCUGUAACCAUUUUAAGGGUA [A47U A69G U127C]: the self-cleavage stood at 0.24. The figure for GUUAACGGUCAUAGGCCAUGGAAACUAGGAGCACCAUUUCGCUGCCUGUGAAGAAAUGAACAAAGAAAGUCUGGGCCAGGCAGGCAUCAAAAGAAAUAGUCUUGCGCUCAACCAGAGAGUCUGUAAUCAUUUUAAGGGUA [A47U A69G A117G] is 0.59; for GUUAACGGUCAUAGGCCAUGGAAACUAGGAGCACCAUUUCGCUGCCUGUGAAGAAAUGAACAAAGAAAAUCUGGGCCAGGCAGGCAUCAAAAGAAAUAGUCUUGCGCUCAGCCAGAAAGUCCGUAAUCAUUUUAAGGGUA [A47U A111G U122C] it is 0.01. The figure for GUUAACGGUCAUAGGCCAUGGAAACUAGGAGCACCAUUUCGCUGCCUGUGAAGAAAUGAACAAAGAAUAUCUGGGCCAGGCAGGCAUCAAAAGAAAUAGUCUUGCGCUCAACCAGGAAGUCUGUAAUCAUUUUAAGGGUA [A47U A68U A116G] is 1.01. With GUUAACGGUCAUAGGCCAUGGAAACUAGGAGCACCAUUUCGCUGCCUGUGAAGAAAUGAACAAAGAGAAUCUGGGCCAGGCAGGCAUCAAAAGAAAUAGUCUUGCGCUCAACCUGAAAGUCUGUAAUCAUUUUAAGGGUA [A47U A67G A114U], the self-cleavage amounted to 0.08. The figure for GUUAACGGUCAUAGGCCAUGGAAACUAGGAGCACCAUUUCGCUGCCUGUGAAGAAAUGAACAAAGAAAAUCUGGGCUAGGCAGGCAUCAAAAGAAAUAGCCUUGCGCUCAGCCAGAAAGUCUGUAAUCAUUUUAAGGGUA [A47U C77U U100C A111G] is 0; for GUUAACGGUCAUAGGCCAUGGAAACUAGGAGCACCAUUUCGCUGCCUGUGAAGAAAUGAACAAAGAAAAUCUGGGCCAGGCAGGCAUCAAAGGAAGUAGUCUUGCGCUCAACCAGAAAGUCUGUAAUCAUUUUAGGGGUA [A47U A92G A96G A135G] it is 0.97. Take GUUAACGGUCAUAGGCCAUGGAAACUAGGAGCACCAUUUCGCUGCCUGUGAAGAAAUGAACAAAGAAAAUCUGGGCCAGGCAGGCAUCAAAAGAAAUGGUCUUGCGCUCAACCAGAAAGUCCGUAAUCAUUUUAAGGGUA [A47U A98G U122C]: the self-cleavage is 0.11. The figure for GUUAACGGUCAUAGGCCAUGGAAACUAGGAGCACCAUUUCGCUGCCUGUGAAGAAAUGAACAAAGAAAAUCUGGGCCAGGCAAGCUUCAAAAGAAAUAGUCUUGCGCUCAACCAGAAAGUCUGUAAUCAUUUUAAGUGUU [A47U G83A A86U G137U A140U] is 1.88; for GUUAACGGUCAUAGGCCAUGGAAACUAGGAGCACCAUUUCGCUGCCUGUGAAGAAAUGAACAAAGAAAAUCUGGGCCAGGCAGGCAUCAAAAGAAAUAGUCUUGCGCUCAGCCAGAAAGUCUGUGAUCAUUUUAAGGGUA [A47U A111G A125G] it is 0.01; for GUUAACGGUCAUAGGCCAUGGAAACUAGGAGCACCAUUUCGCUGCCUGUGAAGAAAUGAACAAAGAAAGUCUGGGCCAGGCAGGCAUCAAGAGAAAUAGUCCUGCGCUCAACCAGAAAGUCUGUAAUCAUUUUAAGGGUA [A47U A69G A91G U102C] it is 2.16.
